Reference: paper PMC4336329 (PLoS ONE, 2015)
Hit rate of the full screen: of about 310,000 compounds, about 2,200 (0.71%) showed an effect of 50% or more. Effects have a minus sign here. The list shows a part of the results.

Molecular target: human ether-à-go-go-related gene (hERG) potassium channel (human, UniProt Q12809)
Experiment: primary screen, population patch clamp on CHO cells stably expressing hERG

Chain of human ether-à-go-go-related gene (hERG) potassium channel (Q12809 whole entry, looked up): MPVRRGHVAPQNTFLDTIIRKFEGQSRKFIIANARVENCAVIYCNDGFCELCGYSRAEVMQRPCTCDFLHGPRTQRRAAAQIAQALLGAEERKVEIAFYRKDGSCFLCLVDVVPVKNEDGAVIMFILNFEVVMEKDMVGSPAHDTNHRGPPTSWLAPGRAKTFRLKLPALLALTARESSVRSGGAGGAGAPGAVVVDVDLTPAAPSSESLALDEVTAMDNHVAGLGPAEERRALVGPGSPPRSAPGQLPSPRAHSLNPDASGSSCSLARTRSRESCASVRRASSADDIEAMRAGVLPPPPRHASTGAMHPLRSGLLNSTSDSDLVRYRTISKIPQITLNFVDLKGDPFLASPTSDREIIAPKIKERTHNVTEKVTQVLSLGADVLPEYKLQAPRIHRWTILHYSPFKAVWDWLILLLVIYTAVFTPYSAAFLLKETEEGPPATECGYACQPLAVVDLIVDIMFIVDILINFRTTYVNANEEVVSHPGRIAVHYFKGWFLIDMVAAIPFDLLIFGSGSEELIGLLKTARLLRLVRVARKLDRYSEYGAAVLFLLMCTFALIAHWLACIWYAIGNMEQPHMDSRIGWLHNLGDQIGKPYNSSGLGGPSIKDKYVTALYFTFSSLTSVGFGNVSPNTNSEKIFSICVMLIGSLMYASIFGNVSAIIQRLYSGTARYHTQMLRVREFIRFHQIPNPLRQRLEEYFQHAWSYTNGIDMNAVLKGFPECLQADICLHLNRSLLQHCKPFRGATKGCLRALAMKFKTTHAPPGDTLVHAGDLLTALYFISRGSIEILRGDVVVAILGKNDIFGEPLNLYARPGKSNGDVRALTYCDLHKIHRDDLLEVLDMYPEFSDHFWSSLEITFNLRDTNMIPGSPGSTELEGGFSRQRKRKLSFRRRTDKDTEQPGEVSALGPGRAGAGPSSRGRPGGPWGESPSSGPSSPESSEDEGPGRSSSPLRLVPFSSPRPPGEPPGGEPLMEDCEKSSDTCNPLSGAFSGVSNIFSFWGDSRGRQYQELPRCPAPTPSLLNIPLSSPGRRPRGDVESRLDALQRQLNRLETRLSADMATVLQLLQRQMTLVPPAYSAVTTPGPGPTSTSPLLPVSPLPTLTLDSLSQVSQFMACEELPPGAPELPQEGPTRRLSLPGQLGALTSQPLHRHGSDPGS

Compared with O=C(Nc1ccccc1F)Nc1cccnc1Cl, Cc1cccnc1NC(=O)Nc1ccc(F)cc1 is lower in “hERG current change (%, negative = inhibition) at 1uM” value: 18.1% for the first, 2.47% for the second.

First: CCCC(=O)OCC(=O)NC1CCCc2ccccc21 (stereo not drawn)
Second: O=C(Cc1coc2ccc3ccccc3c12)NC1CCCc2ccccc21 (stereo not drawn)
The “hERG current change (%, negative = inhibition) at 1uM” value of the first is higher: 14.4% for the first, 6.68% for the second.

Going from CCn1c(C(C)C)n[nH]c1=S to CCOC(=O)CN1C(=O)N[C@@H](c2ccco2)C(C(C)=O)=C1C, the “hERG current change (%, negative = inhibition) at 1uM” value rises from 15.5% to 18.5%.

Going from CCc1cc2c(=O)[nH]cnc2s1 to CCc1ccc2[nH]cc(C(=O)OCCOC)c(=O)c2c1, the “hERG current change (%, negative = inhibition) at 1uM” value rises from 4.62% to 12.3%.

First: O=C1CSC(c2cn(-c3ccccc3)nc2-c2cc3ccccc3oc2=O)N1Cc1ccccc1 (stereo not drawn)
Second: O=S(=O)(Cc1cc(NCc2ccccc2)nc(-c2ccccn2)n1)c1ccccc1
The “hERG current change (%, negative = inhibition) at 1uM” value of the first is higher: 17.2% for the first, 1.24% for the second.

Going from COC(=O)C1=C(c2ccc(F)cc2OCc2ccccc2)C[C@@H]2CC[C@H]1N2C(=O)NCc1ccc(N(C)C)cc1 to Cl.NS(=O)(=O)c1ccc(CCNCc2cc(Br)ccc2OCc2ccccc2)cc1, the “hERG current change (%, negative = inhibition) at 1uM” value falls from 12.2% to -44.9%.

Compared with Fc1cccc(CCN2CCNC[C@@H]2Cc2ccccc2)c1, Cl.c1ccc(CNCc2ccco2)cc1 is higher in “hERG current change (%, negative = inhibition) at 1uM” value: 14.6% for the first, 15.7% for the second.

First: CCc1cccc(NC(=O)CCc2c(C)nn(-c3ccc(N4CCOCC4)nn3)c2C)c1
Second: Cc1ccc(C(=O)c2cc([N+](=O)[O-])ccc2N2CCOCC2)c(C)c1
The “hERG current change (%, negative = inhibition) at 1uM” value of the first is lower: -10.2% for the first, 6.27% for the second.

Compared with O=Cc1cccn1-c1nccc(-c2ccco2)n1, O=C(CSc1nnc(-c2ccco2)o1)N1c2ccccc2CCc2ccccc21 is higher in “hERG current change (%, negative = inhibition) at 1uM” value: 0.442% for the first, 9.21% for the second.

Compared with CC(C)CCNC(=O)NC(=O)COC(=O)CCN=C1NS(=O)(=O)c2ccccc21, C/C(N)=C(/C#N)C(=O)COC(=O)CCCNC(=O)c1ccc(Cl)cc1 is higher in “hERG current change (%, negative = inhibition) at 1uM” value: 10.4% for the first, 28.8% for the second.

First: COCCCN1C(=O)c2ccc(C(=O)N3CCN(c4ccc(OC)cc4)CC3)cc2C1=O
Second: CCOC(=O)N1CCN(C(=O)COc2ccc(S(=O)(=O)NCc3ccccc3)cc2)CC1
The “hERG current change (%, negative = inhibition) at 1uM” value of the first is higher: 2.63% for the first, -16% for the second.

Going from O=c1[nH]nc(CSCc2ccccc2Cl)[nH]1 to O=c1cnnc(N/N=C/c2ccccn2)[nH]1, the “hERG current change (%, negative = inhibition) at 1uM” value rises from 11.6% to 25.5%.

Compared with COc1ccccc1N1CC(C(=O)Nc2cc(C(F)(F)F)ccc2N2CCCC2)CC1=O (stereo not drawn), O=C(O/N=C\c1ccc(N2CCCCC2)c([N+](=O)[O-])c1)c1cccc(C(F)(F)F)c1 is higher in “hERG current change (%, negative = inhibition) at 1uM” value: 6.4% for the first, 12.6% for the second.

First: Cn1cccc1CC(=O)NNC(=S)NC(=O)c1ccccc1Br
Second: O=C(NNC(=S)NC(=O)c1cccs1)c1ccc(NC(=O)c2ccccc2)cc1
The “hERG current change (%, negative = inhibition) at 1uM” value of the first is higher: 15.5% for the first, 15.3% for the second.

Going from CC(=O)Nc1ccc(Nc2c3c4c(cccc4n(C)c2=O)C(=O)c2ccccc2-3)cc1 to Cc1ccccc1NS(=O)(=O)c1cc(C(=O)Nc2ccccc2-c2ccccc2)ccc1Cl, the “hERG current change (%, negative = inhibition) at 1uM” value falls from 10.6% to -1.32%.

First: COc1cccc(-c2onc3ccc(C(=O)/C=C/N(C)C)cc23)c1
Second: COc1ccc(/C=N/NC(=O)c2c(-c3ccccc3)noc2C)cc1[N+](=O)[O-]
The “hERG current change (%, negative = inhibition) at 1uM” value of the first is higher: 10.2% for the first, 3.27% for the second.

Compared with CCOc1ccc(/C=C2\CCC(C3CCCC3)C2=O)cc1 (stereo not drawn), CCOc1ccc(OCC)c(NC(=O)C2CCN(c3cnccn3)CC2)c1 is lower in “hERG current change (%, negative = inhibition) at 1uM” value: 15.4% for the first, 11.5% for the second.

First: C/C(=N\NC(=O)CN(c1ccc(Oc2ccccc2)cc1)S(C)(=O)=O)C(C)(C)C
Second: Cc1ccccc1NS(=O)(=O)c1ccc(OCC(=O)NCc2ccco2)cc1
The “hERG current change (%, negative = inhibition) at 1uM” value of the first is higher: 12.8% for the first, 5.03% for the second.

First: Cc1csc(Nc2ccc(Cl)cc2)n1
Second: Cc1cccc(OC(=O)NCCOC(=O)N(O)c2ccc(Cl)cc2)c1
The “hERG current change (%, negative = inhibition) at 1uM” value of the first is higher: 6.43% for the first, 1.04% for the second.

Compared with N#Cc1nc(COc2ccccc2)oc1N1CCCC1, O=C(Nc1ccccc1N1CCCC1)C1CCN(S(=O)(=O)c2ccccc2)CC1 is higher in “hERG current change (%, negative = inhibition) at 1uM” value: 1.32% for the first, 12.1% for the second.

Compared with COc1cc2cc(CN(C(=O)NC3CCCCC3)C3CCCC3)c(=O)[nH]c2cc1OC, COc1cc(OC)c2cc(C(=O)N/N=C/c3cccc(OC)c3O)[nH]c2c1 is higher in “hERG current change (%, negative = inhibition) at 1uM” value: 6.78% for the first, 12.8% for the second.

First: Cc1cc(Nc2cccc(F)c2)n2ncnc2n1
Second: Cc1cccc(NC(=O)/C(C#N)=C/c2cccc([N+](=O)[O-])c2)n1
The “hERG current change (%, negative = inhibition) at 1uM” value of the first is lower: -0.775% for the first, 16% for the second.

Going from CSC(=S)N/N=C/c1c[nH]c2ccccc12 to COc1ccc2nc(SCC(=O)Nc3ccccc3)[nH]c2c1, the “hERG current change (%, negative = inhibition) at 1uM” value falls from 12.7% to 10.6%.

First: COc1ccc(/C(O)=C2/C(=O)C(=O)N(CCN(C)C)C2c2ccc(F)cc2)cc1Cl (stereo not drawn)
Second: COc1ccnc2c1c(=O)n(Cc1ccc(Cl)cc1)c(=O)n2C
The “hERG current change (%, negative = inhibition) at 1uM” value of the first is lower: 11.7% for the first, 19% for the second.

Going from N#C/C(=N\Nc1ccc(S(=O)(=O)N2CCCCCC2)cc1)C(N)=S to COC(=O)CNc1cc(S(=O)(=O)N2CCCCC2)ccc1Oc1cccc(C)c1, the “hERG current change (%, negative = inhibition) at 1uM” value falls from 11.3% to 4.73%.

Compared with O=C(NCc1nc2ccccc2[nH]1)C1=C[C@@H](C2CC2)C[C@@H](OCc2ccc(CO)cc2)O1, O=C(N/N=C/c1cccc(OCc2ccccc2)c1)c1ccc(Br)o1 is higher in “hERG current change (%, negative = inhibition) at 1uM” value: 7.48% for the first, 16% for the second.

First: CC(OC(=O)C12CC3CC(CC(O)(C3)C1)C2)C(N)=O (stereo not drawn)
Second: CCOC(=O)C1(CC2CCCCO2)CCN(S(=O)(=O)c2cccc(F)c2)CC1 (stereo not drawn)
The “hERG current change (%, negative = inhibition) at 1uM” value of the first is higher: 9.69% for the first, 7.21% for the second.

First: O=C(N1CCN(c2ccc(F)cc2)CC1)C1(c2cccs2)CCOCC1
Second: O=C(Cn1ncc2c([nH]c3ccccc32)c1=O)N1CCN(c2ccccc2F)CC1
The “hERG current change (%, negative = inhibition) at 1uM” value of the first is higher: 6.11% for the first, 2.27% for the second.

Going from O=C(CSc1ccc(-c2ccc(-n3cccn3)cc2)nn1)Nc1ccccc1F to Cc1nnc2ccc(-c3ccc(NC(=O)Cc4cccs4)cc3)nn12, the “hERG current change (%, negative = inhibition) at 1uM” value falls from 18% to 4.96%.

First: O=C(CSc1cn[nH]n1)Nc1ccc(O)c(C(=O)O)c1
Second: C=CCn1c(Cn2nnc3ccccc32)nnc1SCC(=O)N/N=C/c1cc(Br)cc(OC)c1O
The “hERG current change (%, negative = inhibition) at 1uM” value of the first is lower: 8.3% for the first, 14.4% for the second.

Going from C=CCN1C(=O)N/C(=C/c2ccc(N3CCOCC3)o2)C1=O to CCS(=O)(=O)c1ccc2oc(SCC(=O)N3CCCCC3)nc2c1, the “hERG current change (%, negative = inhibition) at 1uM” value falls from 4.6% to 0.777%.

Going from O=C(NCC(c1ccco1)N1CCc2ccccc2C1)c1ccc(Cl)cc1 (stereo not drawn) to O=C(O)CC(c1ccccc1F)N1Cc2ccccc2C1=O (stereo not drawn), the “hERG current change (%, negative = inhibition) at 1uM” value rises from -17.2% to 5.14%.

First: Cc1ccc(C(OCC(C)(C)C[N+](C)(C)C)c2ccccc2)cc1.[I-] (stereo not drawn)
Second: CC(C)(C)C(=O)OCc1cn(-c2ccccc2)nn1
The “hERG current change (%, negative = inhibition) at 1uM” value of the first is lower: -1.33% for the first, 0.93% for the second.

First: O=C(NC(=S)Nc1ccccn1)c1ccc([N+](=O)[O-])cc1
Second: COc1cc([N+](=O)[O-])ccc1NC(=O)Cc1ccccc1
The “hERG current change (%, negative = inhibition) at 1uM” value of the first is lower: 5.46% for the first, 7.83% for the second.

Compared with Cc1cc(C(C2C(=O)CC(C)(C)CC2=O)C2C(=O)CC(C)(C)CC2=O)cc(C)c1OC(F)F, Cc1ccc(OCC(O)CN2C(=O)NC(C)(C)C2=O)cc1C (stereo not drawn) is higher in “hERG current change (%, negative = inhibition) at 1uM” value: -3.24% for the first, 11.8% for the second.

Going from COc1ccc(CCNCc2c(OC)ccc3ccccc23)cc1.O=C(O)C(=O)O to COc1cc(/C=C(/C#N)C(=O)c2c(C)[nH]c3ccccc23)ccc1OCC#N, the “hERG current change (%, negative = inhibition) at 1uM” value rises from 5.29% to 9.37%.

First: CCCn1c2c(c(O)c(C(=O)Nc3ncccc3C)c1=O)CCCC2
Second: CCn1c(SCC(=O)NC2CCCC2)nnc1-c1cccnc1
The “hERG current change (%, negative = inhibition) at 1uM” value of the first is lower: 5.67% for the first, 11.2% for the second.

Going from O=C(c1cc(C2CC2)nn1-c1ccccc1)N1CCN(Cc2c(F)cccc2Cl)CC1 to O=C(Nc1ccncc1)c1ccccc1Cl, the “hERG current change (%, negative = inhibition) at 1uM” value rises from -19.4% to 14.8%.

Going from O=C(N/C=C/c1ccco1)NCc1ccccc1 to O=C(/C=C/c1ccco1)NC1CCCC1, the “hERG current change (%, negative = inhibition) at 1uM” value falls from 15.2% to 6.16%.

First: CCCC(=O)Nc1nnc(S(=O)(=O)N(CC(C)C)c2ccccc2)s1
Second: CCNC1=C(Cl)C(=O)c2ccccc2C1=O
The “hERG current change (%, negative = inhibition) at 1uM” value of the first is higher: 14.9% for the first, 14.3% for the second.

Going from Cc1ccc2nc(N(CCN(C)C)C(=O)c3cc(Cl)sc3Cl)sc2c1.Cl to CC(Nc1ccc(Cl)c(Cl)c1)C(=O)NN (stereo not drawn), the “hERG current change (%, negative = inhibition) at 1uM” value rises from 8.61% to 11.6%.

First: COCCN(C(=O)C1=COCCO1)c1c(N)n(Cc2ccccc2)c(=O)[nH]c1=O
Second: O=C1NC(c2ccc3c(c2)OCO3)Oc2ccccc21 (stereo not drawn)
The “hERG current change (%, negative = inhibition) at 1uM” value of the first is higher: 20% for the first, 7.7% for the second.

First: CN1CCN(CC(=O)N/N=C/c2ccc(F)c(F)c2)CC1
Second: COc1ccc(/C=N/NC(=O)Cn2cc(C(F)(F)F)ccc2=O)cc1
The “hERG current change (%, negative = inhibition) at 1uM” value of the first is higher: 14.1% for the first, 2.71% for the second.

Compared with Cc1ccn2cc(CNS(=O)(=O)c3cccs3)nc2c1, Cc1cc2ncn(C(=O)c3cc(-c4ccccc4)nc4ccccc34)c2cc1C is higher in “hERG current change (%, negative = inhibition) at 1uM” value: -4.47% for the first, 10.9% for the second.

Compared with CCCCC(O)CN1CCC(c2ccccc2)CC1 (stereo not drawn), CCOc1ccc(NC(=O)CN2CCN(CC(=O)Nc3ccc(C(N)=O)cc3)CC2)cc1 is lower in “hERG current change (%, negative = inhibition) at 1uM” value: -36.3% for the first, -36.9% for the second.
